Measurements published in the supplement of paper PMC11876631.
± gives the standard deviation of the averaged measurements. Laboratory Escherichia coli strains with one amino-acid change in an essential protein, pooled on minimal glucose agar with carbenicillin or gentamicin at twice the control MIC (plus kanamycin and chloramphenicol for the plasmids), 48 h. Fold change of barcode share against drug-free plates; higher = less susceptible. Active = above 20 in both replicates (the paper's putatively resistant). '<' = one read or none on drug, '>' = one read or none on a drug-free plate. Shares are relative, so most strains fall below 1 when a few take over. Listed are strains with at least 15 reads on both drug-free plates, and hits; most hits rest on fewer reference reads. Replicate rank correlation about 0.5. Edits are read from barcodes.

B1: mukF F31W (protein)
chain: MSEFSQTVPELVAWARKNDFSISLPVDRLSWLLAVATLNGERLDGEMSEGELVDAFRHVSDAFEQTSETIGVRANNAINDMVRQRLLNRFTSEQAEGNAIYRLTPLGIGITDYYIRQREFSTLRLSMQLSIVAGELKRAADAAEEGGDEFHWHRNVYAPLKYSVAEIFDSIDLTQRLMDEQQQQVKDDIAQLLNKDWRAAISSCELLLSETSGTLRELQDTLEAAGDKLQANLLRIQDATMTHDDLHFVDRLVFDLQSKLDRIISWGQQSIDLWIGYDRHVHKFIRTAIDMDKNRVFAQRLRQSVQTYFDEPWALTYANADRLLDMRDEEMALRDEEVTGELPEDLEYEEFNEIREQLAAIIEEQLAVYKTRQVPLDLGLVVREYLSQYPRARHFDVARIVIDQAVRLGVAQADFTGLPAKWQPINDYGAKVQAHVIDKY
B2: mukF F31Q (protein)
chain: MSEFSQTVPELVAWARKNDFSISLPVDRLSQLLAVATLNGERLDGEMSEGELVDAFRHVSDAFEQTSETIGVRANNAINDMVRQRLLNRFTSEQAEGNAIYRLTPLGIGITDYYIRQREFSTLRLSMQLSIVAGELKRAADAAEEGGDEFHWHRNVYAPLKYSVAEIFDSIDLTQRLMDEQQQQVKDDIAQLLNKDWRAAISSCELLLSETSGTLRELQDTLEAAGDKLQANLLRIQDATMTHDDLHFVDRLVFDLQSKLDRIISWGQQSIDLWIGYDRHVHKFIRTAIDMDKNRVFAQRLRQSVQTYFDEPWALTYANADRLLDMRDEEMALRDEEVTGELPEDLEYEEFNEIREQLAAIIEEQLAVYKTRQVPLDLGLVVREYLSQYPRARHFDVARIVIDQAVRLGVAQADFTGLPAKWQPINDYGAKVQAHVIDKY
B3: mukF L52A (protein)
chain: MSEFSQTVPELVAWARKNDFSISLPVDRLSFLLAVATLNGERLDGEMSEGEAVDAFRHVSDAFEQTSETIGVRANNAINDMVRQRLLNRFTSEQAEGNAIYRLTPLGIGITDYYIRQREFSTLRLSMQLSIVAGELKRAADAAEEGGDEFHWHRNVYAPLKYSVAEIFDSIDLTQRLMDEQQQQVKDDIAQLLNKDWRAAISSCELLLSETSGTLRELQDTLEAAGDKLQANLLRIQDATMTHDDLHFVDRLVFDLQSKLDRIISWGQQSIDLWIGYDRHVHKFIRTAIDMDKNRVFAQRLRQSVQTYFDEPWALTYANADRLLDMRDEEMALRDEEVTGELPEDLEYEEFNEIREQLAAIIEEQLAVYKTRQVPLDLGLVVREYLSQYPRARHFDVARIVIDQAVRLGVAQADFTGLPAKWQPINDYGAKVQAHVIDKY
B4: asd I110D (protein)
chain: MKNVGFIGWRGMVGSVLMQRMVEERDFDAIRPVFFSTSQLGQAAPSFGGTTGTLQDAFDLEALKALDIIVTCQGGDYTNEIYPKLRESGWQGYWIDAASSLRMKDDAIIDLDPVNQDVITDGLNNGIRTFVGGNCTVSLMLMSLGGLFANDLVDWVSVATYQAASGGGARHMRELLTQMGHLYGHVADELATPSSAILDIERKVTTLTRSGELPVDNFGVPLAGSLIPWIDKQLDNGQSREEWKGQAETNKILNTSSVIPVDGLCVRVGALRCHSQAFTIKLKKDVSIPTVEELLAAHNPWAKVVPNDREITMRELTPAAVTGTLTTPVGRLRKLNMGPEFLSAFTVGDQLLWGAAEPLRRMLRQLA
B5: asd I110P (protein)
chain: MKNVGFIGWRGMVGSVLMQRMVEERDFDAIRPVFFSTSQLGQAAPSFGGTTGTLQDAFDLEALKALDIIVTCQGGDYTNEIYPKLRESGWQGYWIDAASSLRMKDDAIIPLDPVNQDVITDGLNNGIRTFVGGNCTVSLMLMSLGGLFANDLVDWVSVATYQAASGGGARHMRELLTQMGHLYGHVADELATPSSAILDIERKVTTLTRSGELPVDNFGVPLAGSLIPWIDKQLDNGQSREEWKGQAETNKILNTSSVIPVDGLCVRVGALRCHSQAFTIKLKKDVSIPTVEELLAAHNPWAKVVPNDREITMRELTPAAVTGTLTTPVGRLRKLNMGPEFLSAFTVGDQLLWGAAEPLRRMLRQLA
B6: murA L239A (protein)
chain: MDKFRVQGPTKLQGEVTISGAKNAALPILFAALLAEEPVEIQNVPKLKDVDTSMKLLSQLGAKVERNGSVHIDARDVNVFCAPYDLVKTMRASIWALGPLVARFGQGQVSLPGGCTIGARPVDLHISGLEQLGATIKLEEGYVKASVDGRLKGAHIVMDKVSVGATVTIMCAATLAEGTTIIENAAREPEIVDTANFLITLGAKISGQGTDRIVIEGVERLGGGVYRVLPDRIETGTFAVAAAISRGKIICRNAQPDTLDAVLAKLRDAGADIEVGEDWISLDMHGKRPKAVNVRTAPHPAFPTDMQAQFTLLNLVAEGTGFITETVFENRFMHVPELSRMGAHAEIESNTVICHGVEKLSGAQVMATDLRASASLVLAGCIAEGTTVVDRIYHIDRGYERIEDKLRALGANIERVKGE

target: Escherichia coli (laboratory strain); experiment: barcode share on antibiotic plates over drug-free plates; higher = less susceptible; details: antibiotic: carbenicillin; 2× MIC (3.1 µg/mL)
Description: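 A pool of E. coli strains, each edited to carry one amino-acid change in an essential protein, was grown for 48 h on minimal glucose agar with or without antibiotic; strain barcodes were sequenced; mean of two replicates.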

Row | Protein | fold change of barcode share
1 | B1 | 0.408 ± 0.23
2 | B2 | 0.641 ± 0.17
3 | B3 | 0.263 ± 0.098
4 | B4 | 2.89 ± 2.3
5 | B5 | 0.3592 ± 0.0013
6 | B6 | 0.284 ± 0.1

same assay, conditions: antibiotic: gentamicin; 2× MIC (MIC 0.45 µg/mL)

Row | Protein | fold change of barcode share
7 | B1 | 0.00303 ± 0.0022
8 | B2 | 0.0285 ± 0.03
9 | B3 | 0.00891 ± 0.0059
10 | B5 | 0.00651 ± 0.00021
11 | B6 | < 0.0138
